Measurements reported in PubChem BioAssay AID1030 (National Center for Advancing Translational Sciences (NCATS), 2008).
Several values for one entry are separate records, joined by “and”; a condition that tells them apart may be missing. Equal entries are not always repeated. The whole screen tested about 220,000 compounds, of which about 16,000 (7.3%) were called active. Inconclusive means that the source gave no clear call. Such entries were picked first, then a sample of the others. Calls follow the shape of the dose curve; as a rule, active = well fitted inhibition curve with a large enough effect (not every such curve was filed as active); inconclusive = small, poorly fitted or top-dose-only effect, or another doubt; inactive = no such curve, though single readings can be large or run the other way. No potency is given beside an inconclusive call; the fits are too rough.

These compounds were tested against Aldehyde dehydrogenase 1A1 (Homo sapiens) (UniProt P00352) (assay: qHTS Assay for Inhibitors of Aldehyde Dehydrogenase 1 (ALDH1A1)). Settings: Purified ALDH1A1, NADH fluorescence, propionaldehyde substrate; series mostly up to 75.3 µM; activity, negative = inhibition: at the top concentration.
UniProt P00352, sequence (P00352 whole entry, looked up): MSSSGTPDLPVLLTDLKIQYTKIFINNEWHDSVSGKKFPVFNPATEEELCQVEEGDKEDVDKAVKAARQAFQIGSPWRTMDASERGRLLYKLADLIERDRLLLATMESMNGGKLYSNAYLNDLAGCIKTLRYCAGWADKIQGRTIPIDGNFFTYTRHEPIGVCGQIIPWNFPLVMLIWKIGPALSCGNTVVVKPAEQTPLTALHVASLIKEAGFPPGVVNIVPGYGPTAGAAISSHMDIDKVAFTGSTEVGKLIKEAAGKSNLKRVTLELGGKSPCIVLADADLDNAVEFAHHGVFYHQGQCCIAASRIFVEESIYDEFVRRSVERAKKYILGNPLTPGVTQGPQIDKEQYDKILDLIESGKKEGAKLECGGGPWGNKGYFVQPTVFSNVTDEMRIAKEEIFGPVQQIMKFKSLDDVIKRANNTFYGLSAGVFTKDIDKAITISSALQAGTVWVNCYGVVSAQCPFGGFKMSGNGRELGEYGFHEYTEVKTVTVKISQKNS

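For activity, negative = inhibition in this document: plate controls were no enzyme wells and a reference inhibitor.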
Potency is read from the fitted curve at half-maximal effect; tags tell the direction and shape of the fitted curve.

Compound | Potency | activity, negative = inhibition
O=C(CSc1nc2ccccc2c2nc3ccccc3n12)NCc1ccco1 | inconclusive [inhibitor, partial curve] | 
CC(C)N(Cc1ccccc1)C(=O)/C=C/c1ccccc1[N+](=O)[O-] | active: 5.62 µM | 
Cc1ccc(N2C(=O)C(CN3CCCC3)C2c2ccccc2)cc1 (stereo not drawn) | inconclusive [inhibitor, single point] | 
O=C(/C=C/c1cccc(Br)c1)NCc1ccncc1 |  | inactive: -7.24%
C=CCc1cccc2cc(NC(C)=O)c(=O)oc12 | inconclusive [inhibitor, single point] | 
CC(=O)c1ccc(NC(=O)c2ccccc2Sc2ncnc3sc(C)c(C)c23)cc1 |  | inactive: -6.15%
COc1ccc(C(=O)Nc2nc(-c3ccc(S(=O)(=O)N4CCOCC4)cc3)cs2)cc1 | inconclusive [inhibitor, single point] | 
COc1cc(OC)cc(C(=O)N[C@H](C(=O)OCc2cc(=O)oc3cc(C)ccc23)C(C)C)c1 | inconclusive [inhibitor, partial curve] | 
O=S1(=O)CCN2C=Nc3sc4c(c3C2=N1)CCCC4 | active: 8.91 µM | 
Cc1cccc(C)c1NC(=O)COC(=O)COc1ccc2c(C)cc(=O)oc2c1 | inconclusive [inhibitor, single point] | 
Cc1ccc(C(=O)C(OC(=O)c2cnccn2)c2ccccc2)cc1C (stereo not drawn) | inconclusive [inhibitor, single point] | 
COc1cc(C(=O)c2c(C)c(CCC#N)n3ccccc23)cc(OC)c1OC | inconclusive [inhibitor, single point] | 
Cc1cccc(C2=NN(c3ccccc3)[C@H](CO)[C@H]2c2ccccc2)c1 | inconclusive [inhibitor, partial curve] | 
Cc1ccc(O)c(-c2cc(C(F)(F)C(F)F)nc(-c3ccccc3)n2)c1 |  | inactive: 0.555%
C/C(N)=C(/C#N)C(=O)CSc1nnc(COc2cc(C)ccc2C)o1 |  | inactive: 8.04%
COc1ccc(O)c(-c2cc(-c3ccccc3[N+](=O)[O-])[nH]n2)c1 |  | inactive: 0.235%
CCCCn1c(SCC(=O)c2ccc3c(c2)OCCO3)nnc1-c1ccco1 | inconclusive [inhibitor, single point] | 
COc1cc(-c2nc(-c3cccc(C(F)(F)F)c3)no2)cc(OC)c1OC | inconclusive [inhibitor, single point] | 
COc1ccccc1-n1cnc2c(c1=O)c1nc3ccccc3nc1n2-c1ccc(C)cc1 | inconclusive [inhibitor, single point] | 
CC(=O)c1c(-c2ccccc2)c2ccccc2[nH]c1=O |  | inactive: -7.94%
O=C(COC(=O)CCC(=O)c1ccc(F)cc1)Nc1cccc(S(=O)(=O)N2CCOCC2)c1 | inconclusive [inhibitor, single point] | 
Cc1cccc(-c2nc(CSCC(=O)NCc3cccs3)c(C)o2)c1 | inconclusive [inhibitor, single point] | 
COC(=O)c1ccccc1NC(=O)N1CCN(c2ccc(OC)cc2)CC1 |  | inactive: 1.67%
O=Cc1ccc(-n2cc(C=O)c3ccccc32)cc1 | active: 11.2 µM | 
Fc1ccc(/C=C/c2nnc(-c3cccs3)o2)cc1 | inconclusive [inhibitor, partial curve] | 

Compound | Potency | activity, negative = inhibition
O=S(=O)(Nc1ccc(S(=O)(=O)Nc2cccc3ccccc23)cc1)c1ccccc1 | inconclusive [inhibitor, single point] | 
NC(=O)CSC1=Nc2ccccc2C2=NC(c3ccccc3)C(=O)N12 (stereo not drawn) | inconclusive [inhibitor, partial curve] | 
COc1cc(OC)cc(-c2nc(N)n[nH]2)c1 | inconclusive [inhibitor, partial curve, poor fit] | 
Cc1ccc(-n2nc(C)c3c(C)c(CCC(=O)NCc4ccco4)c(C)nc32)cc1 | inconclusive [inhibitor, partial curve] | 
CC1CN(S(=O)(=O)c2ccc(C(=O)Nc3sccc3C(N)=O)cc2)CC(C)O1 (stereo not drawn) | inconclusive [inhibitor, single point] | 
CCCc1ccc(Oc2cn[nH]c2-c2ccc(O)cc2O)cc1 |  | inactive: 15.2%
COc1cccc(-c2cc(C(F)(F)F)nc(NCc3ccco3)n2)c1 |  | inactive: -0.573%
C=CCN(CC=C)CCCOc1ccc(C)cc1OC | inconclusive [inhibitor, single point] | 
Cc1c(C(=O)Nc2ccccc2Cl)oc2ccc(S(=O)(=O)N3CCC4(CC3)OCCO4)cc12 | inconclusive [inhibitor, single point] | 
Cc1ccc(C(c2nnnn2C2CCCC2)N2CCN3CCCC3C2)cc1 (stereo not drawn) | inconclusive [inhibitor, single point] | 
O=C(NCc1ccco1)c1cnccn1 | active: 28.2 µM | 
O=C(NC(=S)N1CCN(C/C=C/c2ccccc2)CC1)c1ccco1 | inconclusive [inhibitor, single point] | 
COc1cccc([C@H]2Oc3ccc(OC)cc3/C(=N\O[C@@H](C)c3cn([C@H](CO)Cc4ccccc4)nn3)[C@@H]2O)c1 |  | inactive: -12.6% [at 13.5 µM] and inactive: 6.12% [at 13.5 µM]
O=C1C2C3C=CC(C4CC34)C2C(=O)N1/N=C/c1ccc(-c2ccccc2[N+](=O)[O-])o1 (stereo not drawn) | inconclusive [inhibitor, single point] | 
O=C(O)c1ccccc1NS(=O)(=O)c1cccc2ccccc12 |  | inactive: -6.53%
O=C(CSc1nc2ccccc2c(=O)n1CCCC(=O)N1CCCC1)NCc1ccco1 | inconclusive [inhibitor, single point] | 
O=C(CSc1cccc[n+]1[O-])Nc1cccc(S(=O)(=O)NC2=NCCCCC2)c1 |  | inactive: -2.98%
CCCCn1c(SCc2nc(N)nc(N3CCCCC3)n2)nc2c1c(=O)n(C)c(=O)n2C | inconclusive [inhibitor, partial curve] | 
Cc1nc(N2CCCCC2)nc(N2CCCCC2)c1C=O | inconclusive [inhibitor, single point] | 
Cc1cc(C(c2nnnn2Cc2ccccc2)N2CCOCC2)c(C)n1-c1ccc2c(c1)OCO2 (stereo not drawn) | active: 12.6 µM | 
Cc1cccc(COc2ccccc2/C=N/Nc2ccc([N+](=O)[O-])cc2)c1 |  | inactive: -2.85%
CCn1cc(S(=O)(=O)CC(=O)Nc2cc(C)on2)c2ccccc21 | inconclusive [inhibitor, single point] | 
CC(=O)[C@H]1CC[C@@H]2[C@H]3CC=C4C[C@@H](O)CC[C@]4(C)[C@H]3CC[C@]12C |  | inactive: -2.98% [at 20.9 µM]
Cc1ccc2nc(C3CCN(C(=O)c4ccco4)CC3)[nH]c2c1 |  | inactive: -0.851%
CCOC(=O)C1C(C(=O)OC)=C(C(=O)OC)c2ccccc2N1S(=O)(=O)C(F)(F)F (stereo not drawn) |  | inactive: -6.53%

Compound | Potency | activity, negative = inhibition
O=C(Oc1ccccc1C(=O)Nc1ccccc1)c1ccc(Br)c([N+](=O)[O-])c1 | active: 14.1 µM | 
Cc1nnsc1NC(=O)OCc1ccc(Cl)cc1Cl |  | inactive: 11.7%
O=C(CCc1c[nH]c2ccccc12)NC1CC1 |  | inactive: 5.26%
CCCc1nn(C)c2c(=O)[nH]c(-c3ccccc3OCC)nc12 | inconclusive [inhibitor, single point] | 
O=C(CN1CCN(Cc2ccccc2Cl)C1=O)NC1CCCCCC1 |  | inactive: -12.8%
C(=N\N1CCOCC1)/c1nc(-c2ccccc2)n2ccccc12 | inconclusive [inhibitor, single point] | 
N#Cc1ccc(CNc2cnccn2)cc1 | inconclusive [inhibitor, partial curve] | 
CCOC(=O)C1C(=O)NC(C)C1c1ccccc1 (stereo not drawn) |  | inactive: 3.29%
COc1ccc(OC)c(S(=O)(=O)Nc2ccccc2F)c1 |  | inactive: 25.1%
c1ccc2c(c1)CC1(CCCC1)n1nnnc1-2 | active: 12.6 µM | 
COc1ccc(Cl)cc1C(=O)N/N=C/c1ccc(N2CCOCC2)cc1 | inconclusive [inhibitor, single point] | 
O=C(c1ccc2nc3ccccc3c(=O)n2c1)N1CCN(Cc2ccc3c(c2)OCO3)CC1 | inconclusive [inhibitor, partial curve] | 
CCCCCCCCS(=O)CCC(=O)O (stereo not drawn) | inconclusive [inhibitor, single point] | 
Cc1ccccc1NC(=O)CSc1nc2cc3c(cc2cc1C)CCC3 |  | inactive: 1.24%
COc1ccc(Nc2ncnc3c2cnn3-c2ccccc2)cc1OC | inconclusive [inhibitor, partial curve] | 
O=C(Nc1ccc(-c2nc3cc(NC(=O)c4cccs4)ccc3o2)cc1)c1cccs1 | inconclusive [inhibitor, partial curve] | 
CCOC(=O)c1c(C)[nH]c(/C(C)=N/O)c1C |  | inactive: -14.1%
Cc1ccc(-n2nc(C)c(Sc3ccccc3[N+](=O)[O-])c2N)cc1 | active: 10 µM | 
COc1cc(C)c(S(=O)(=O)NCc2ccc3c(c2)OCO3)cc1C | inconclusive [inhibitor, single point] | 
O=C(CCSCCc1ccccn1)Nc1c(F)cc(F)cc1Br | inconclusive [inhibitor, single point] | 
CCOC(=O)c1c(N)sn(-c2ccccc2)c1=S |  | inactive: -0.754%
COc1cc(Br)cc(CNc2ccc(F)c([N+](=O)[O-])c2)c1O | inconclusive [inhibitor, single point] | 
Cc1c(CCC(=O)O)c(=O)oc2cc(O)ccc12 | inconclusive [inhibitor, partial curve] | 
